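Five concentrations, 48 hours, 96-well plates. Here, GI50 denotes the concentration required for 50% inhibition of growth. Definition used: TGI = concentration required for complete inhibition of growth.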
System: NCI-H322M lung
Assay: inhibition of tumour cell growth, NCI panel, 48 h

SMILES	GI50	TGI
C/C=C\C(=O)O[C@@H]1CC2O[C@@H]3C=C(C)C(=O)C[C@]3(C)[C@]1(C)[C@]21CO1	0.7 µM	2.53 µM
Fc1ccc(-c2cc3nc(C(Cl)Cl)nc(-c4ccc(F)cc4)n3n2)cc1	0.909 µM	2.89 µM
CN1CCN(Cc2ccc(NC(=O)c3cncc(C#Cc4cnc5ccc(NCCCO)nn45)c3)cc2C(F)(F)F)CC1	0.154 µM	0.572 µM
COc1cc(/C=N/n2cnc3oc(-c4ccccc4)cc3c2=N)cc(CN2CCCCC2)c1O	1.79 µM	3.4 µM
CC[C@@H](CO)Nc1ccc2ncc(C#Cc3cncc(C(=O)Nc4ccc(CN5CCN(C)CC5)c(C(F)(F)F)c4)c3)n2n1	0.155 µM	0.583 µM
